From PubChem BioAssay (NCI)
Several values for one entry are separate records, joined by “and”; a condition that tells them apart may be missing. Equal values may be shown once.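 Protocol summary: plate cells (96-well), add compound at 5 concentrations, incubate 48 h, interpolate endpoints linearly. GI50 is the concentration that inhibits growth by half. TGI marks complete inhibition of growth.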

Tested on: NCI-H322M lung
Assay: NCI-60 cell line screen, 48 h

Compound: CO/N=C(\C)c1cccc(Nc2cc(-c3ccccc3)nc3c(O)cccc23)c1
- GI50: 10.1 µM
- TGI: 34.5 µM

Compound: CCCCCCCCOC(CO)CO
- TGI: > 100 µM

Compound: O=C1OCCC1C(O)C1c2ccccc2-c2ccccc21 (stereo not drawn)
- TGI: > 100 µM

Compound: CC(=O)c1cccc(NC(=O)C(=O)C(C2OC(=O)c3ccccc32)[N+](=O)[O-])c1 (stereo not drawn)
- TGI: > 100 µM

Compound: O=c1[nH]c(=O)n(C2OC(CO)C(O)C2O)c2ccsc12 (stereo not drawn)
- TGI: > 100 µM

Compound: COc1cccc2c1-c1c(c3ccc([N+](=O)[O-])cc3c(=O)n1CCCCl)C2=O
- GI50: 40.9 µM
- TGI: > 50 µM

Compound: CCOC(=O)CC1(O)CCCCC1(Sc1ccc(C)cc1)Sc1ccc(C)cc1 (stereo not drawn)
- TGI: > 100 µM

Compound: NNC(=S)N/N=C(/C(=O)Nc1cc(Cl)ccc1Cl)C1C(=O)Nc2ccccc2S1=O (stereo not drawn)
- TGI: > 100 µM

Compound: COc1ccc(N=C2C(=Nc3ccc(OC)cc3)N(S(=O)(=O)c3ccccc3)C(=S)N2c2ccccc2)cc1
- TGI: > 100 µM

Compound: c1cc(-c2ccc(-c3ccc(C4=NC5CCCCC5N4)cc3)o2)ccc1C1=NC2CCCCC2N1 (stereo not drawn)
- TGI: 2.69 µM

Compound: O=C(O)c1cc2cc(c1)N=Cc1ccccc1OCc1cccc(n1)COc1ccccc1C=N2
- TGI: > 25 µM

Compound: Cc1noc(C)c1-c1cc(O)cc(C(O)c2ccccc2)c1 (stereo not drawn)
- GI50: 8.41 µM
- TGI: > 100 µM

Compound: CCCCCC[C@H]1CC(=O)C2CCCC[C@@]23CC[C@H](CCl)N13 (stereo partly drawn) (tested in a mixture with another compound)
- TGI: > 100 µM

Compound: COc1cc(C=C2N=C(c3ccccc3)N(n3c(-c4ccccc4)nc4ccccc4c3=O)C2=O)cc(OC)c1OC
- TGI: 44.3 µM

Compound: NC(=S)Nc1cc(Cl)ccc1Cl
- TGI: > 100 µM

Compound: CN[C@@H](C)[C@@H](N)c1ccccc1
- TGI: > 100 µM

Compound: CN(C)CCOc1ccc(/C(=C(/CCCl)c2ccccc2)c2ccccc2)cc1
- GI50: 1.72 µM
- TGI: 5.06 µM and 30.4 µM

Compound: O=C(N/C(=C\c1cccc([N+](=O)[O-])c1)c1nc2[nH]c(=S)[nH]c(=O)c2[nH]1)c1ccccc1
- TGI: > 100 µM

Compound: O=C(O)c1ccc([N+]2=Cn3c(nc4ccccc43)C2)cc1
- TGI: > 100 µM

Compound: C=C(C)C1CC2(C)C(C)CC(OC(=O)/C(C)=C\C)CC2C(OC(=O)/C(C)=C\C)C1O (stereo not drawn)
- TGI: > 100 µM

Compound: C=CC(C=O)C1(O)CCOC(=O)/C1=C\N (stereo not drawn)
- GI50: > 100 µM
- TGI: > 100 µM

Compound: N=c1nc2n(cc1F)[C@@H]1O[C@H](CO)[C@@H](O)[C@@H]1O2
- TGI: > 100 µM

Compound: CC(=O)O[C@H]1CC[C@@]2(C)C(=CC[C@@H]3[C@@H]2CC[C@]2(C)Nc4c(cnn4S(C)(=O)=O)C[C@@H]32)C1
- TGI: > 100 µM

Compound: CN(C)c1ncnc2c1nnn2C1OC(CO)C(O)C1O (stereo not drawn)
- GI50: 1.11 µM
- TGI: > 100 µM

Compound: Cn1cc(-c2cnc(-c3cn(C)c4ccccc34)cn2)c2ccccc21
- TGI: > 100 µM

Compound: CC(=O)Nc1ccc(CNc2cc(=O)n(C)c(=O)[nH]2)cc1
- TGI: > 100 µM

Compound: Cn1c(O)c(C(/C=C/c2ccccc2)=NCCN=C(/C=C/c2ccccc2)c2c(O)n(C)c(=O)n(C)c2=O)c(=O)n(C)c1=O
- GI50: 16.5 µM
- TGI: > 50 µM

Compound: O=C(c1ccco1)c1nc2cc(F)ccc2[n+]([O-])c1C(F)(F)F
- GI50: 39 µM
- TGI: > 100 µM

Compound: C[C@@H]1CC[C@@H]2[C@@H]1[C@H](OC(=O)/C=C/c1ccccc1)[C@]1(C3CCCCC3)C[C@@H](NC(=O)CO)[C@@]2(C)O1
- GI50: 15.7 µM
- TGI: 29.5 µM

Compound: COC(=O)[C@]12CSC[C@H]1C[C@H](c1ccccc1OC)N2
- TGI: > 100 µM

Compound: C/C(=N\N=C(\[Se])N1CCN(c2ccccn2)CC1)c1ccccn1
- GI50: 0.0057 µM
- TGI: 16.4 µM

Compound: COC(=O)[C@]12CC[C@@H](C)[C@H](C)[C@@H]1C1=CC[C@@H]3[C@@]4(C)C(C=O)=C[C@@](C)(COC(=O)c5ccco5)[C@@H]4C(=O)C[C@@]3(C)[C@]1(C)CC2
- GI50: 14.1 µM
- TGI: > 100 µM

Compound: CCN1C(NN)=NS(=O)(=O)c2ccccc21
- TGI: > 100 µM

Compound: O=C1CCCC/C1=C1\C(=O)Nc2cc(F)ccc21
- TGI: > 100 µM

Compound: N#Cc1ccc(N2Cc3ccccc3OC3=C2C(=O)c2c(O)ccc(O)c2C3=O)cc1
- GI50: 3.31 µM
- TGI: 12 µM

Compound: O=C(NNc1ccnc2cc(Cl)ccc12)/C(=C\c1ccccc1Cl)NC(=O)c1ccccc1
- TGI: > 100 µM

Compound: Oc1c(CN2CCCC2)cc(COCc2ccc(Br)cc2)c2cccnc12
- GI50: 0.4 µM
- TGI: 4.81 µM

Compound: O=C1N(c2ccccc2)C(=O)C2(SC=NN2Cc2ccccc2)N1c1ccccc1 (stereo not drawn)
- TGI: > 100 µM

Compound: CCOC(=O)C1=C(C)NC2SC(=O)/C(=C\c3ccccc3O)N2C1c1ccccc1 (stereo not drawn)
- GI50: 15.4 µM
- TGI: 38.9 µM

Compound: O=C(Nc1ccc(Oc2ccc3nc(NC(=O)c4ccccc4)[nH]c3c2)cc1)Nc1cc(C(F)(F)F)ccc1F
- GI50: 8.76 µM
- TGI: > 25 µM

Compound: COc1cc2nccc(Oc3ccc(NC(=O)C4(C(=O)Nc5ccc(F)cc5)CC4)cc3)c2cc1Oc1ccc(N)cn1
- GI50: 3.58 µM
- TGI: > 100 µM

Compound: CCOC(=O)[C@H]1Nc2c(cccc2[N+](=O)[O-])[C@H]2OCC[C@@H]12
- TGI: > 100 µM

Compound: N#Cc1c(NCCc2ccc(F)cc2)c2ccccc2n2c1nc1ccccc12
- TGI: > 100 µM

Compound: CN(C)c1nc2n(CCO)c(-c3ccccc3)c(-c3ccccc3)nc-2c(=O)n1
- TGI: > 100 µM

Compound: O=C(O)[C@@H]1CCC(=O)N1C(c1ccc2c(c1)OCO2)c1ccc2c(c1)OCO2
- TGI: > 100 µM

Compound: O=[N+]([O-])c1ccc2c(c1)Nc1c3ccccc3nc3cccc-2c13
- TGI: > 100 µM

Compound: CNC(=O)c1ccc2cc(C3(O)CCn4cncc43)ccc2c1 (stereo not drawn)
- GI50: > 100 µM
- TGI: > 100 µM

Compound: Cc1ccc(C[P+]2(c3ccccc3)CCCCC2)cc1
- TGI: > 100 µM

Compound: CC[C@H](Nc1nc(N)nc(C)c1C#N)c1nc2cccc(NCc3ccc(C(=O)NO)cc3)c2c(=O)n1-c1ccccc1
- GI50: 2.17 µM
- TGI: 9.75 µM

Compound: C1=Nc2sc3c(c2C2=NCCN12)CCCC3
- TGI: 33.1 µM

Compound: COc1cc(-c2cc(=O)c3c(O)c(OC)c(OC)c(OC)c3o2)ccc1O
- TGI: > 100 µM

Compound: Cc1ccc(/C(=C\C(=O)C(=O)NC23CC4CC(CC(C4)C2)C3)Sc2ccccc2)cc1
- TGI: > 10 µM

Compound: CC/C(=C(/CC)c1ccc([O-])cc1)c1ccc([O-])cc1.CC/C(=C(\CC)c1ccc([O-])cc1)c1ccc([O-])cc1.O=C([CH-]C(=O)c1ccccc1)c1ccccc1.O=C([CH-]C(=O)c1ccccc1)c1ccccc1.O=C([CH-]C(=O)c1ccccc1)c1ccccc1.O=C([CH-]C(=O)c1ccccc1)c1ccccc1.[Ti+4].[Ti+4]
- GI50: 38.6 µM
- TGI: > 100 µM

Compound: O=C(CCCN1CCOCC1)Nc1ccc(Cn2nnc3c2C(=O)c2nnn(Cc4ccc(NC(=O)CCCN5CCOCC5)cc4)c2C3=O)cc1
- GI50: 6.25 µM
- TGI: > 100 µM

Compound: CC(=O)c1c(C)n(C)c2c1nnc1ccccc12
- TGI: > 100 µM

Compound: O=C1Nc2ccccc2S/C1=C\c1ccccc1C(F)(F)F
- TGI: > 100 µM

Compound: CC(=O)OC(C)c1cc2c(s1)C(=O)c1scc(C(C)OC(C)=O)c1C2=O (stereo not drawn)
- TGI: 3.61 µM

Compound: NCCCCN(CCCN)C(=O)c1ccccc1
- TGI: > 100 µM

Compound: Cn1cc(C2=C(c3cccnc3)C(=O)NC2=O)c2ccccc21
- GI50: > 25 µM
- TGI: > 25 µM

Compound: O=C1Nc2ccccc2S/C1=C\c1cccc(C(F)(F)F)c1
- TGI: > 100 µM

Compound: CC(=O)OCC(=O)O[C@@H]1C[C@]2(C(C)C)O[C@@]1(C)[C@@H]1CC[C@@H](C)[C@H]1[C@@H]2OC(=O)/C=C/c1ccccc1
- GI50: 22.4 µM
- TGI: > 83.9 µM

Compound: CC1CCN(CCCCCOc2ccc3oc4cc(Cl)ccc4c(=O)c3c2)CC1
- GI50: 7.19 µM
- TGI: 13.9 µM

Compound: Cc1cccc(/C=C2\CCCc3ccccc3C2=O)c1
- TGI: 78.5 µM

Compound: O=P(NC12CC3CC(CC(C3)C1)C2)(N1CC1)N1CC1
- TGI: > 100 µM

Compound: O=C(CCCN1CCC2(CC1)NC(=O)c1ccccc1O2)c1ccc(F)cc1
- TGI: > 100 µM

Compound: Cc1c(-c2nnc(-c3ccc(Cl)cc3)o2)c(=O)n(-c2ccccc2)n1C
- TGI: > 100 µM

Compound: C/C1=C/C2=CC(C)C[C@@H]2C(=O)[C@]2(C)C(=O)CC(C)(C)[C@H]2CC1=O (stereo partly drawn)
- TGI: > 50 µM

Compound: COc1c(NC(C)=O)cc(C)cc1NC(C)=O
- TGI: > 100 µM

Compound: Nc1c(-c2nc3ccccc3o2)sc(=S)n1-c1ccc(Cl)cc1
- TGI: > 100 µM

Compound: COc1ccc(OC)c(C23CCCC(C2)N(C)CC3)c1 (stereo not drawn)
- TGI: > 100 µM

Compound: CC1CCC(O)(C(C)(C(=O)O)c2ccccc2)CC1 (stereo not drawn)
- TGI: > 100 µM

Compound: Cc1ccc(S(=O)(=O)N/N=c2\c(C)c(C3=NS(=O)(=O)c4cc(S(N)(=O)=O)c(Cl)cc4N3)oc3c(Cl)cc(Cl)cc23)cc1
- TGI: > 100 µM

Compound: NC(N)=NC(P(=O)(O)O)P(=O)(O)O
- TGI: > 100 µM

Compound: CCn1c(-c2ccc(F)cc2)nc2c1C(=O)c1ccccc1C2=O
- TGI: > 100 µM

Compound: O=c1cccccc1NCCCCCCNc1cccccc1=O
- TGI: > 100 µM

Compound: N#C/C(=C\c1ccc(O)c(O)c1)C(=O)NC1CCC(CC2CCC(NC(=O)/C(C#N)=C/c3ccc(O)c(O)c3)CC2)CC1 (stereo not drawn)
- TGI: 48 µM

Compound: O=C(O)NCc1ccccc1 (tested in a mixture with another compound)
- TGI: > 100 µM

Compound: CCOc1cc2c(cc1O)/C(=N\O)C[C@@H]1[C@@H]2CC[C@]2(C)[C@@H](O)CC[C@@H]12
- GI50: 0.0428 µM
- TGI: > 100 µM

Compound: CC(=O)Nc1sc([N+](=O)[O-])cc1S(=O)(=O)c1ccc(Cl)cc1
- TGI: > 100 µM

Compound: COCc1cc2c(cc1/C(=C/[N+](=O)[O-])CS(=O)(=O)c1ccccc1)OCO2
- TGI: > 100 µM

Compound: CO/N=C(/C(=O)N(C(=O)/C(=N/OC)c1csc(NC(c2ccccc2)(c2ccccc2)c2ccccc2)n1)n1cnn(CC(=O)OC(C)(C)C)c1=O)c1csc(NC(c2ccccc2)(c2ccccc2)c2ccccc2)n1
- TGI: > 10 µM

Compound: COc1ccc2c(c1)C(=O)C(=O)c1cc(O)c(OC)c(OC)c1-2
- GI50: 3.09 µM
- TGI: 14.8 µM and 11.7 µM

Compound: Cc1cc(C2=NNC(=O)Cc3cc4c(cc32)OCCO4)cc(C)c1N
- GI50: 4.74 µM
- TGI: > 100 µM

Compound: O=C(O)c1ccccc1CC1Cc2ccc3c(c2C1=O)CCC3 (stereo not drawn)
- TGI: > 100 µM

Compound: CCOC(=O)[C@H](O)[C@@H](O)C(=O)NCc1ccc(C(=O)c2ccccc2)cc1
- TGI: > 100 µM

Compound: C=CCC(CC=O)(C(=O)OCC)C(=O)OCC
- TGI: > 100 µM

Compound: O=C(CCl)NC(Cc1ccc(F)cc1)C(=O)O (stereo not drawn)
- TGI: > 100 µM

Compound: CC(O)C(N=Cc1nc(-c2ccccc2)oc1O)C(=O)O (stereo not drawn)
- TGI: > 100 µM

Compound: CN(N=O)C(=O)N[C@@H](C=O)[C@@H](O)[C@H](O)[C@H](O)CO
- GI50: > 750 µM
- TGI: > 750 µM

Compound: O=C(Nc1ccc(CN2CCOCC2)cc1)c1[nH]ncc1Nc1ncnc2sccc12
- GI50: 0.331 µM
- TGI: 4.32 µM

Compound: CCOC(=O)c1c2c(n(Cc3ccccc3)c1C)-c1ccccc1C(=O)C2=O
- GI50: 17 µM
- TGI: 35.7 µM

Compound: CN(C)c1ccc(/C=C2\N=C(c3ccc([N+](=O)[O-])cc3)OC2=O)cc1
- TGI: > 100 µM

Compound: O=c1cc(N2CCNCC2)oc2c(-c3ccccc3)cccc12
- GI50: 24.8 µM
- TGI: > 100 µM
